Data: the RNAGym collection of RNA variant scans (doi:10.7554/elife.90254)
Read counts are not given, so values of variants with three or more changes are uncertain.

B1: LINE1-mini (parent)
chain: GGCAGAGCUCAACACAGCGUGGCAAAGUGGCUGUGGCUAGACUGCC

Variants of: B1
Assay: self-cleavage, relative activity (ratio to wild type); higher = more cleavage; in vitro, sequencing; the parent is a self-cleaving ribozyme

Variant	self-cleavage
GGAAGAGCCCAACACAGCGUGGCACAGUGGCUGUGUCUAGACUGCC [C3A U9C A25C G36U]	0.02
GGAAGAGCUCAACACAGCGUGGCAAAUUUGCUGUGGCUAGAAUGCC [C3A G27U G29U C42A]	0.43
GGAAGAGCUCAACACAGCGUGGCAAACUGGCUGUUGCUAGACUGCC [C3A G27C G35U]	0.17
GGAAGAGCUCAACACAGCGCGGCAAAGUGGCUGUGCCUAGACUGCC [C3A U20C G36C]	0.27
GGAAGAGCACAACACAGAGUGGCAAAGUUGCUGUGUCUAUACUGCC [C3A U9A C18A G29U G36U G40U]	1.21
GGAAGAGCUCAACACAGCGUGCCAAAGGGGCUCAGGCUAGACUGAC [C3A G22C U28G G33C U34A C45A]	0.09
GGAAGAGCCCAACACAUCGAGGAAAAGUGGCUGUGGCUAGACUGCC [C3A U9C G17U U20A C23A]	0.02
GGAAGAGCUCAACACAGCUUGGCAAAGCGGCUGUGGCUAGACUGCG [C3A G19U U28C C46G]	0.17
GGAAGAGCACAACACAGCGUGGCAACGUGGAUGUGGCUAGACUGCC [C3A U9A A26C C31A]	0.08
GGAAGAGCUCAACACAGCCUGGCAUAGUAGCUGUGGCUAGACUACC [C3A G19C A25U G29A G44A]	1.14
GGAAGAGCCCAACACAGAGUGGCAAAGUGGCUGUGGCGUGACUGGU [C3A U9C C18A U38G A39U C45G C46U]	0.01
GGAAGAGCCCAACACAGCGUGGCGAAGCGGCUGUCGCUCGACUGCC [C3A U9C A24G U28C G35C A39C]	0.03
GGAAGAGCACAACACAGCGUGGCAAAGUGGCUGUGGCUCGACUGCC [C3A U9A A39C]	0.07
GGAAGAGCUCAACACAGCUUGGCAAAGUGCCUGUAGCUAGACUGCC [C3A G19U G30C G35A]	0.47
GGAAGAGCUCAACACAGCGUGGCAAAGUGGCUUUGGCUAGACUGCA [C3A G33U C46A]	0
GGAAGAGCUCAACACAGCUUGGAAAAGUGGCUGUGGCUAGACUGAC [C3A G19U C23A C45A]	0.16
GGAAGAGCUCAACACAGCUUGGCAAAGUGGCUGUGGCGAGACUGCC [C3A G19U U38G]	0.09
GGAAGAGCACAACACGGCGUGGCAAAGUGGCUGUGGCCAUACUGCC [C3A U9A A16G U38C G40U]	0.13
GGAAGAGCUCAACACAGCGAGGCAUAGUGGCUGUGUCUAGAAUGCC [C3A U20A A25U G36U C42A]	0.01

Variant	self-cleavage
GGAAGAGCCCAACUCAGCGUCGCAAACUGGCUGUGGCUAGGCUGCC [C3A U9C A14U G21C G27C A41G]	0.04
GGAAGAGCAAAACACAGCGUGGCAAAGUGGCUGUGGCUAGACUGCC [C3A U9A C10A]	0.05
GGAAGAGCUCAACACAGCGAGGCAUAGUGGCUGUGGCUAGACUGCC [C3A U20A A25U]	0.29
GGAAGAGCUCAACACAGCGACGCAAAGUGGCUGAAGCUAGACUGCC [C3A U20A G21C U34A G35A]	0.04
GGAAGAGCUCAACACAGCGUUGCAAAGUGGCUAUGGCUAAACUGCA [C3A G21U G33A G40A C46A]	0.05
GGAAGAGCUCAACACAGCGUGACAAAGUGGCUGUGGCUUGACUGCA [C3A G22A A39U C46A]	0.09
GGAAGAGCUCAACACAGCGUGGCAAAGGGGAGGUGGCUAGACUGCU [C3A U28G C31A U32G C46U]	0.06
GGAAGAGCACAACACAGUGUGGCAAAGUGGCUGUGGCUAAGCUGCG [C3A U9A C18U G40A A41G C46G]	0.09
GGAAGAGCUCAACACAGCGUGGCAAACUGGCUGCGGCUAGACUGCU [C3A G27C U34C C46U]	0.29
GGAAGAGCACAACACAACGUGGUAAAGUGGCUGUUGCUAGACUGCC [C3A U9A G17A C23U G35U]	0.16
GGAAGAGCUCAACACAGCGUGUCAAAGUGGCUGUGGCUCGACAGCC [C3A G22U A39C U43A]	0.04
GGAAGAGCUCAACACAGCGGGGCAAAGUGGCUGUAGCUAGACUACC [C3A U20G G35A G44A]	0.18
GGAAGAGCCCAACACAGCGUGGCAAAGUGGCAGUGGCUAGACUUCC [C3A U9C U32A G44U]	0
GGAAGAGCACAACAGAGCGUGGUAAAGUGGCUGUGGCUAGACUGCC [C3A U9A C15G C23U]	0.23
GGAAGAGCUCAACACAGCUUGGCAAAGUGGCUGUAAUUAGACUGCC [C3A G19U G35A G36A C37U]	0.03
GGAAGAGCUCAACACAGCGUGCCUAAGUGGCUGUGGCGAGACUGCC [C3A G22C A24U U38G]	0.02
GGAAGAGCACAACACAGCAUGGCAAAGUGGCAGUGGCUAGACUGUC [C3A U9A G19A U32A C45U]	0.52
GGAAGAGCUCAACACAGCGUGGCAAAGUGACUGUGGCUAGACCACC [C3A G30A U43C G44A]	0.09
GGAAGAGCUCAACACAGCGUGGCAAAGUGGCUGUGGCUACAAUGCC [C3A G40C C42A]	0.07

Variant	self-cleavage
GGAAGAGCUCAACACAGCCUGGUAAAGUGCCUGUGGCUAGAUUGCC [C3A G19C C23U G30C C42U]	0.13
GGAAGAGCUCAACACAGCGUGCCAAAGUGGCUGUGGCUAGACUGGC [C3A G22C C45G]	0.02
GGAAGAGCUCAACACAGCGCGGCAAAGUGGCUGUGGCCAGACUGCC [C3A U20C U38C]	0.26
GGAAGAGCUCAACACAGCGUCGCAAAGGGGCUGUGGCUAGACUGUC [C3A G21C U28G C45U]	0.25
GGAAGAGCUCAACACAGCGUGCCAAUGUGGCUGUGGCUAGACUGCC [C3A G22C A26U]	0.11
GGAAGAGCUCAACACAGCGUGCCAACGUGGCUGUGGCUAGACUGCC [C3A G22C A26C]	1.08
GGAAGAGCCCAACACAGCGUGGCAAAGUGACUGUGGCUAGACUGCC [C3A U9C G30A]	0.03
GGAAGAGCUCAACACAGCAUGGCAAAGUGGCUGUGACUAGACUGCC [C3A G19A G36A]	0.73
GGAAGAGCUCAACACAGCAUGGCAAAGUGGCUGAGGCUAGACCGCC [C3A G19A U34A U43C]	0.02
GGAAGAGCUCAACACAGCGUGGCAAAGUGGCUGUGGCUAGACUUAC [C3A G44U C45A]	0.5
GGAAGAGCCCAACACAGCGUGCCAAAGUGGCUGUGGCUAGACUGCC [C3A U9C G22C]	0.04
GGAAGAGCUCAACACAGCGUGGCAAAGGGGCUGUGUUUAGACUGUC [C3A U28G G36U C37U C45U]	0.01
GGAAGAGCUCAACACAGCGUGGCAAAGUGGCACUGGCUAGAAUGCC [C3A U32A G33C C42A]	0.06
GGAAGAGCUCAACACAGCGUGGCAAAGUGGCUGUGGCUAAACUUCC [C3A G40A G44U]	0.22
GGAAGAGCUCAACACAGCGUGGCAAAGUUGCUGUGGUUAGACUGCC [C3A G29U C37U]	0.17
GGAAGAGCUCAACACAGCGUGCCAAAGGGGCUGUGGCUAGACUGCC [C3A G22C U28G]	0.2
GGAAGAGCUCAACACAGCGUGGCAAAGCCGCUUUGGCUAGACUGCC [C3A U28C G29C G33U]	0.14
GGAAGAGCUCAACACAGCGUGGCAAAGAGUGCGUGGCUAGACUGCC [C3A U28A G30U C31G U32C]	0.29
